# Reference: the supplement of paper PMC6089552
# “And” between values parts separate entries of the source, which are not always exact repeats. Identical values can stand only once. Screen size: about 3,200 compounds; about 300 (9.4%) showed activity. The entries are a selection whose mix differs from that of the whole data set.
# System: A673/TR/shEF
# Experiment: cell viability (LOESS-normalised, relative to median of negative controls) (log2 ratio); higher = more viable cells (less compound effect), active = hit call of the paper (over 3 MAD below the median)
# Settings: treatment time: 72 h
# Method in brief: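 A673/TR/shEF Ewing sarcoma cells were plated at 1,500 per well in 384-well plates and cultured with or without doxycycline, added 24 h before compounds, to induce EWS-FLI1 shRNA knockdown. Library compounds at two or more concentrations, alongside DMSO controls, were applied for three days. Cell viability was measured by CellTiter-Glo luminescence on an Envision reader. Readings were LOESS-corrected per plate, divided by the median of negative controls and log2-transformed, and hits were wells lying at least three median absolute deviations from the median of all screened wells.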
# [1] = 0.25 µM, library screen: screen1, EWS-FLI1 expression: high (no doxycycline)
# [2] = 0.25 µM, library screen: screen1, EWS-FLI1 expression: low (doxycycline-induced shRNA knockdown)
# [3] = 0.25 µM, library screen: screen2, EWS-FLI1 expression: high (no doxycycline)
# [4] = 0.25 µM, library screen: screen2, EWS-FLI1 expression: low (doxycycline-induced shRNA knockdown)
# [5] = 2.5 µM, library screen: screen1, EWS-FLI1 expression: high (no doxycycline)
# [6] = 2.5 µM, library screen: screen1, EWS-FLI1 expression: low (doxycycline-induced shRNA knockdown)
# [7] = 2.5 µM, library screen: screen2, EWS-FLI1 expression: high (no doxycycline)
# [8] = 2.5 µM, library screen: screen2, EWS-FLI1 expression: low (doxycycline-induced shRNA knockdown)
# [9] = 0.103 µM, library screen: screen3, EWS-FLI1 expression: high (no doxycycline)
# [10] = 0.103 µM, library screen: screen3, EWS-FLI1 expression: low (doxycycline-induced shRNA knockdown)
# [11] = 0.308 µM, library screen: screen3, EWS-FLI1 expression: high (no doxycycline)
# [12] = 0.308 µM, library screen: screen3, EWS-FLI1 expression: low (doxycycline-induced shRNA knockdown)
# [13] = 0.926 µM, library screen: screen3, EWS-FLI1 expression: high (no doxycycline)
# [14] = 0.926 µM, library screen: screen3, EWS-FLI1 expression: low (doxycycline-induced shRNA knockdown)
# [15] = 2.8 µM, library screen: screen3, EWS-FLI1 expression: high (no doxycycline)
# [16] = 2.8 µM, library screen: screen3, EWS-FLI1 expression: low (doxycycline-induced shRNA knockdown)
# [17] = 8.3 µM, library screen: screen3, EWS-FLI1 expression: high (no doxycycline)
# [18] = 8.3 µM, library screen: screen3, EWS-FLI1 expression: low (doxycycline-induced shRNA knockdown)
# [19] = 25 µM, library screen: screen3, EWS-FLI1 expression: high (no doxycycline)
# [20] = 25 µM, library screen: screen3, EWS-FLI1 expression: low (doxycycline-induced shRNA knockdown)
structure (smiles),measurement,setting,value
CC(C)(C)NCC(O)c1cc(O)cc(O)c1 (configuration not stated),cell viability (log2),[1],inactive: 0.0961
same,cell viability (log2),[2],inactive: 0.111
same,cell viability (log2),[3],inactive: 0.113
same,cell viability (log2),[4],inactive: 0.0509
same,cell viability (log2),[5],inactive: 0.157
same,cell viability (log2),[6],inactive: 0.192
same,cell viability (log2),[7],inactive: 0.201
same,cell viability (log2),[8],inactive: 0.0252
CC[N+](CC)(CC)CCOc1cccc(OCC[N+](CC)(CC)CC)c1OCC[N+](CC)(CC)CC,cell viability (log2),[9],inactive: 0.0398
same,cell viability (log2),[10],inactive: 0.024
same,cell viability (log2),[1],inactive: 0.0529
same,cell viability (log2),[2],inactive: 0.012
same,cell viability (log2),[3],inactive: 0.159
same,cell viability (log2),[4],inactive: 0.049
same,cell viability (log2),[11],inactive: -0.00105
same,cell viability (log2),[12],inactive: 0.0392
same,cell viability (log2),[13],inactive: 0.102
same,cell viability (log2),[14],inactive: 0.0616
same,cell viability (log2),[5],inactive: 0.217
same,cell viability (log2),[6],inactive: 0.0215
same,cell viability (log2),[7],inactive: 0.193
same,cell viability (log2),[8],inactive: 0.0796
same,cell viability (log2),[15],inactive: -0.0258
same,cell viability (log2),[16],inactive: 0.0455
same,cell viability (log2),[17],inactive: -0.0163
same,cell viability (log2),[18],inactive: 0.0323
same,cell viability (log2),[19],0.42
same,cell viability (log2),[20],inactive: 0.0765
CCOc1ccc(NC(C)=O)cc1,cell viability (log2),[1],inactive: 0.128
same,cell viability (log2),[2],inactive: -0.0163
same,cell viability (log2),[5],inactive: 0.183
same,cell viability (log2),[6],inactive: 0.102
CN1CCC[C@@H]1CCO[C@](C)(c1ccccc1)c1ccc(Cl)cc1,cell viability (log2),[9],inactive: 0.141
same,cell viability (log2),[10],inactive: 0.0523
same,cell viability (log2),[1],inactive: 0.0794
same,cell viability (log2),[2],inactive: 0.13
same,cell viability (log2),[3],inactive: 0.0531
same,cell viability (log2),[4],inactive: 0.128
same,cell viability (log2),[11],inactive: 0.0964
same,cell viability (log2),[12],inactive: 0.0784
same,cell viability (log2),[13],inactive: 0.12
same,cell viability (log2),[14],inactive: 0.0683
same,cell viability (log2),[5],inactive: 0.0576
same,cell viability (log2),[6],inactive: -0.00561
same,cell viability (log2),[7],inactive: 0.106
same,cell viability (log2),[8],inactive: 0.0339
same,cell viability (log2),[15],inactive: 0.0902
same,cell viability (log2),[16],inactive: 0.0397
same,cell viability (log2),[17],inactive: 0.0198
same,cell viability (log2),[18],inactive: 0.0364
same,cell viability (log2),[19],inactive: 0.0553
same,cell viability (log2),[20],inactive: -0.00614
CC(C(=O)O)c1ccc(C(=O)c2cccs2)cc1 (configuration not stated),cell viability (log2),[1],inactive: 0.0835
same,cell viability (log2),[2],inactive: 0.0129
same,cell viability (log2),[5],inactive: 0.155
same,cell viability (log2),[6],inactive: -0.0021
COc1cc2ncnc(Nc3ccc(F)c(Cl)c3)c2cc1OCCCN1CCOCC1,cell viability (log2),[9],inactive: 0.066
same,cell viability (log2),[10],inactive: 0.0855
same,cell viability (log2),[11],inactive: 0.103
same,cell viability (log2),[12],inactive: 0.0493
same,cell viability (log2),[13],inactive: 0.114
same,cell viability (log2),[14],inactive: 0.0535
same,cell viability (log2),[15],inactive: 0.136
same,cell viability (log2),[16],inactive: 0.0991
same,cell viability (log2),[17],inactive: 0.00987
same,cell viability (log2),[18],inactive: 0.0751
same,cell viability (log2),[19],inactive: -0.0152
same,cell viability (log2),[20],inactive: 0.0721
O=C(O)c1cccnc1C(=O)O,cell viability (log2),[1],inactive: 0.105
same,cell viability (log2),[2],inactive: 0.0198
same,cell viability (log2),[3],inactive: 0.153
same,cell viability (log2),[4],inactive: 0.0262
same,cell viability (log2),[5],inactive: 0.0345
same,cell viability (log2),[6],inactive: 0.0548
same,cell viability (log2),[7],inactive: 0.169
same,cell viability (log2),[8],inactive: 0.0401
CCN1CCC[C@H]1CNC(=O)c1c(O)c(Cl)cc(Cl)c1OC,cell viability (log2),[3],inactive: 0.269
same,cell viability (log2),[4],inactive: 0.092
same,cell viability (log2),[7],inactive: 0.266
same,cell viability (log2),[8],inactive: 0.199
COc1cc2c(cc1-c1coc3c4c(c(OC)cc3c1=O)OC(C)(C)C=C4)OCO2,cell viability (log2),[1],inactive: 0.082
same,cell viability (log2),[2],inactive: 0.0865
same,cell viability (log2),[5],inactive: 0.173
same,cell viability (log2),[6],inactive: 0.0953
CC[C@@H]([C@H](C)O)n1ncn(-c2ccc(N3CCN(c4ccc(OC[C@@H]5CO[C@@](Cn6cncn6)(c6ccc(F)cc6F)C5)cc4)CC3)cc2)c1=O,cell viability (log2),[9],inactive: 0.0599
same,cell viability (log2),[10],inactive: 0.149
same,cell viability (log2),[11],inactive: 0.118
same,cell viability (log2),[12],inactive: 0.0845
same,cell viability (log2),[13],inactive: 0.138
same,cell viability (log2),[14],inactive: 0.0454
same,cell viability (log2),[15],inactive: 0.0821
same,cell viability (log2),[16],inactive: 0.0872
same,cell viability (log2),[17],inactive: 0.0755
same,cell viability (log2),[18],inactive: 0.0834
same,cell viability (log2),[19],inactive: -0.161
same,cell viability (log2),[20],inactive: -0.034
COc1cccc(CN2CCN(Cc3cc(OC)c(OC)cc3[N+](=O)[O-])CC2)c1,cell viability (log2),[1],inactive: 0.0802
same,cell viability (log2),[2],inactive: 0.0593
same,cell viability (log2),[5],inactive: 0.0795
same,cell viability (log2),[6],inactive: 0.122
COc1cc(OC)c2c(=O)c(-c3ccccc3)c(C)oc2c1OC,cell viability (log2),[1],inactive: 0.0674
same,cell viability (log2),[2],inactive: 0.0259
same,cell viability (log2),[5],inactive: 0.0359
same,cell viability (log2),[6],inactive: 0.0223
CC(C)Cc1ccc(C(C)C(=O)O)cc1 (configuration not stated),cell viability (log2),[9],inactive: 0.0539 and inactive: 0.0202
same,cell viability (log2),[10],inactive: 0.0749 and inactive: 0.0782
same,cell viability (log2),[1],inactive: 0.0705
same,cell viability (log2),[2],inactive: -0.0597
same,cell viability (log2),[3],inactive: 0.0139
same,cell viability (log2),[4],inactive: 0.043
same,cell viability (log2),[11],inactive: 0.0639 and inactive: 0.0471
same,cell viability (log2),[12],inactive: 0.0528 and inactive: 0.0832
same,cell viability (log2),[13],inactive: 0.0795 and inactive: -0.00697
same,cell viability (log2),[14],inactive: 0.065 and inactive: 0.0261
same,cell viability (log2),[5],inactive: 0.137
same,cell viability (log2),[6],inactive: -0.0717
same,cell viability (log2),[7],inactive: 0.0762
same,cell viability (log2),[8],inactive: 0.0533
same,cell viability (log2),[15],inactive: 0.11 and inactive: 0.0253
same,cell viability (log2),[16],inactive: 0.0843 and inactive: 0.0402
same,cell viability (log2),[17],inactive: 0.0587 and inactive: 0.0777
same,cell viability (log2),[18],inactive: 0.0621 and inactive: 0.0478
same,cell viability (log2),[19],inactive: 0.123 and inactive: 0.0399
same,cell viability (log2),[20],inactive: 0.0838 and inactive: 0.0828
COC1=CC(=O)C=C(OC)C1=O,cell viability (log2),[1],inactive: 0.132
same,cell viability (log2),[2],inactive: 0.117
same,cell viability (log2),[5],inactive: 0.0838
same,cell viability (log2),[6],inactive: 0.00672
CC(C)(C)NCC(O)COc1cccc2c1C[C@H](O)[C@H](O)C2 (some centres not stated),cell viability (log2),[1],inactive: 0.133
same,cell viability (log2),[2],inactive: 0.0633
same,cell viability (log2),[5],inactive: 0.167
same,cell viability (log2),[6],inactive: 0.136
COc1ccc(C(=O)c2ccccc2O)c(O)c1,cell viability (log2),[1],inactive: 0.135
same,cell viability (log2),[2],inactive: 0.0898
same,cell viability (log2),[5],inactive: 0.256
same,cell viability (log2),[6],inactive: 0.238
Cc1nc2ccc(NC(=S)N3CCC(C)CC3)cc2nc1C,cell viability (log2),[1],inactive: 0.04
same,cell viability (log2),[2],inactive: -0.00492
same,cell viability (log2),[5],inactive: 0.094
same,cell viability (log2),[6],inactive: -0.0413
COCCc1ccc(OCC(O)CNC(C)C)cc1 (configuration not stated),cell viability (log2),[1],inactive: 0.111
same,cell viability (log2),[2],inactive: 0.036
same,cell viability (log2),[3],inactive: 0.123
same,cell viability (log2),[4],inactive: 0.16
same,cell viability (log2),[5],inactive: 0.122
same,cell viability (log2),[6],inactive: 0.212
same,cell viability (log2),[7],inactive: 0.114
same,cell viability (log2),[8],inactive: 0.0835
N[C@H](C(=O)O)[C@H]1C[C@@H]1C(=O)O,cell viability (log2),[3],inactive: 0.237
same,cell viability (log2),[4],inactive: 0.0918
same,cell viability (log2),[7],inactive: 0.154
same,cell viability (log2),[8],inactive: 0.0251
